The target in the assay is T1, EGFP-ULK2 P242A mutant (human) (UniProt Q8IYT8).
T1 sequence: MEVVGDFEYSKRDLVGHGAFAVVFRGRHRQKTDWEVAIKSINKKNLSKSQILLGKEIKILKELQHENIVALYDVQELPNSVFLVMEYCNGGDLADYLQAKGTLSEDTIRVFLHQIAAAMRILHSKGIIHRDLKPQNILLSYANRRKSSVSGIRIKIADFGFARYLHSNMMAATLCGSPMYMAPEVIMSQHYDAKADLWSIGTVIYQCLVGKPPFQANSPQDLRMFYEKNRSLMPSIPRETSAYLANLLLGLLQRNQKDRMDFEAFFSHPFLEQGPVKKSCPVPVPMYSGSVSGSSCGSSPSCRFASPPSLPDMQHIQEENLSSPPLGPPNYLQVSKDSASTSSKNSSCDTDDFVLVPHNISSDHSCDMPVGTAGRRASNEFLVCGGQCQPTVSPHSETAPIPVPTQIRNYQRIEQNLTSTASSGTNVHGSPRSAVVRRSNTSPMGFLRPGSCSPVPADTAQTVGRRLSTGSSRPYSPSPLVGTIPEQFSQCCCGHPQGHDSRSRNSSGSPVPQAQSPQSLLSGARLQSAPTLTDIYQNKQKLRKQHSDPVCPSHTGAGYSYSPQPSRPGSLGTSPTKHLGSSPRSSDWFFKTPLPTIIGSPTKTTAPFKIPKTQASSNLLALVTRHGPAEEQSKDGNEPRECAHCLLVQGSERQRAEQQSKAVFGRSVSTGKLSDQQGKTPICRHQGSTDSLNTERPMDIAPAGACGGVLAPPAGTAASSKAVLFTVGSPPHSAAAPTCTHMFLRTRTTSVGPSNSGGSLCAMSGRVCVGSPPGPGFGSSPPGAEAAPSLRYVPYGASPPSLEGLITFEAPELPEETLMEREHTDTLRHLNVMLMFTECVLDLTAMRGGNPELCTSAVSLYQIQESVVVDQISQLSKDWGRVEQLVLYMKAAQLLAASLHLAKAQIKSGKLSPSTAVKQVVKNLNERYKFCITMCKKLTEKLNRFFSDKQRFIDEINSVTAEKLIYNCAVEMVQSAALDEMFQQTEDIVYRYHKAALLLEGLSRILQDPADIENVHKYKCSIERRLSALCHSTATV
Put plainly: co-IP; HEK293 cells transfected with EGFP-ULK2 WT, P242A or P794A, lysed after 48 hours; IP with rabbit anti-EGFP antibody; blot for endogenous Kapβ2 (Fig 2B, Fig 5A).

Amino acid sequences for entries named in this document (tags omitted).
UniProt Q92973: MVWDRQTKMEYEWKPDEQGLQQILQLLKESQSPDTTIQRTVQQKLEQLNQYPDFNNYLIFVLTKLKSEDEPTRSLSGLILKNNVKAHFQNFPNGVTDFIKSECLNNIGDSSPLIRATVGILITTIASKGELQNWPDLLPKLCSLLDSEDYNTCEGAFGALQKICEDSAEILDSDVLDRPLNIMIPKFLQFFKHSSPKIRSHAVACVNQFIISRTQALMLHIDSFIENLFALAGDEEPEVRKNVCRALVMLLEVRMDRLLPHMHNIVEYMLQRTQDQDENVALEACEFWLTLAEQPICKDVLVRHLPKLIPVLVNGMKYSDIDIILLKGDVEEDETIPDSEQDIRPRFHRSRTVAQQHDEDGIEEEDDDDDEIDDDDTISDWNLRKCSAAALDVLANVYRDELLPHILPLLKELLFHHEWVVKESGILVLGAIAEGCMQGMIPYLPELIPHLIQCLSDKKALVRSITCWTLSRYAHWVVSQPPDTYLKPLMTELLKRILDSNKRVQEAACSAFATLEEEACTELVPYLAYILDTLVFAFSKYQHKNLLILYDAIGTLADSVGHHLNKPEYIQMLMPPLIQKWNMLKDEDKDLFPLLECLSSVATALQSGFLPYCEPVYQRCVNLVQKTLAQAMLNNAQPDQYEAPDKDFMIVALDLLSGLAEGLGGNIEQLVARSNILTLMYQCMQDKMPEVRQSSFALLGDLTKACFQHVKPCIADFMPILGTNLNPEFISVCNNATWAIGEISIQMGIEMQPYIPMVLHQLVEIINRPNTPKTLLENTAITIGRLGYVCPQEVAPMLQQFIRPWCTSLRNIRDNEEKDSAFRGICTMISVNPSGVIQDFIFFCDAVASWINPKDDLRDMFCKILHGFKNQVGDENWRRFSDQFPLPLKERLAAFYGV

Results are given in words; binding and its absence hold for the method and conditions named. Binding seen in cells or lysates may run through a third protein. Some results given as binding are weak or reduced against the parent protein; the word gives no strength. Where a sequence is shown, tags or fusion partners need not be part of it.

For “karyopherin beta 2 (Kapβ2), endogenous (from UniProt Q92973 1-898)”, the binding result is “binds”.
